Measurements: PubChem BioAssay AID504832 (National Center for Advancing Translational Sciences (NCATS), 2011)
Among all 310,000 compounds or so, about 18,000 (5.8%) were called active. Inconclusive means that the source gave no clear call. Such entries were picked first, then a sample of the others. Calls follow the shape of the dose curve; as a rule, active = well fitted inhibition curve with a large enough effect; inconclusive = small, poorly fitted or top-dose-only effect, or another doubt; inactive = no such curve, though single readings can be large or run the other way. Potencies of inconclusive entries are left out as doubtful fits.

Experiment: Primary qHTS for delayed death inhibitors of the malarial parasite plastid, 48 hour incubation
Conditions: P. falciparum luciferase growth in erythrocytes; series mostly up to 28.7 µM
Outline: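 Luciferase-expressing parasites in RBCs, 2% Hct / 0.1% parasitemia final; RPMI 1640 + 0.5% Albumax; 37 C, 5% CO2, one generation; luminescence read-out, lower signal = inhibition.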
Potency is read from the fitted curve at half-maximal effect; tags tell the direction and shape of the fitted curve.

SMILES | Potency
O=C(NCc1ccco1)c1ccc(COc2ccccc2Cl)cc1 | inconclusive [inhibitor, partial curve]
Cc1cccc(OC(C)C(=O)Nc2ccc(S(=O)(=O)N3CCCC3)cc2)c1 (stereo not given) | inconclusive [inhibitor, single point]
FC(F)(F)c1cccc(NC(=S)NCc2ccc(Cl)cc2)c1 | inconclusive [inhibitor, single point]
O=C(O)CSc1nnc(COc2cccc3cccnc23)n1-c1ccc(Cl)cc1 | inactive
Cc1cccc(NC(=O)CCc2nnc3ccc(N4CCC(C)CC4)nn23)n1 | inconclusive [inhibitor, partial curve, poor fit]
COc1ccc(S(=O)(=O)N2CCCN(S(=O)(=O)c3ccc(OC)cc3C)CC2)c(C)c1 | inconclusive [inhibitor, single point]
COc1ccc(C(C)NC(=S)NCc2ccc(F)cc2)cc1OC (stereo not given) | inconclusive [inhibitor, full curve]
O=C(COC(=O)c1cccnc1Cl)NCCc1ccccc1 | inactive
O=C(O)CCC(=O)Nc1nnc(C(F)(F)F)s1 | inactive
COc1ccc(C(=O)Oc2ccc[nH]c2=O)cc1 | inconclusive [inhibitor, full curve]
Cc1nc(NS(=O)(=O)c2ccccc2)sc1NC(=O)Nc1ccc(Cl)cc1 | inconclusive [inhibitor, partial curve, poor fit]
O=C(N/C(=C/c1cccnc1)C(=O)N1CCCCCC1)c1cccc(Br)c1 | inconclusive [inhibitor, partial curve]
COc1ccc(Cc2nc3ccccc3[nH]c2=O)cc1 | inactive
Cc1cc(NC(=O)CCC(=O)N(c2ccccc2)C(C(=O)NC2CCCCC2)c2cccs2)no1 (stereo not given) | inconclusive [inhibitor, single point]
FC(F)(F)c1ccc2c(c1)NCC1CCCN21 (stereo not given) | inactive
COc1ccccc1/C=C1\CCCC2=C1Nc1nnnn1C2c1ccccc1OC (stereo not given) | inconclusive [inhibitor, single point]
CCC(Cc1ccccc1)NC(=O)Cn1cccc1C(=O)c1ccccc1 (stereo not given) | inconclusive [inhibitor, single point]
Cc1nnc2sc(-c3ccc(NC(=O)CSc4ccc(Cl)cc4)cc3)nn12 | active: 5.22 µM
O=C(NCCCN1CCCC1=O)c1cc(S(=O)(=O)N2CCOCC2)c(Cl)cc1Cl | inconclusive [inhibitor, single point]
COC(=O)c1ccc(Cn2nc(C)c([N+](=O)[O-])c2C)o1 | inactive
